Sequences and labels used below:
B1: Caulobacter ParB omega fusion; a variant is named by its letters at X, in order, B8GW30 (parent)
chain: MESVVVGEPGMSEGRRGLGRGLSALLGEVDAAPAQAPGEQLGGSREAPIEILQRNPDQPRRTFREEDLEDLSNSIREKGVLQPILVRPSPDTAGEYQIVAGERAWRAAQRAGLKTVPIMVRELDDLAVLEIGIIENVQRADLNVLEEALSYKVLMEKFERTQENIAQTIGKSXSHVANXMRLLXLPDEVQSYLVSGELTAXHARAIAAAADPVALAKQIIEGGLSVRETEALARKAPNLSAGKSKGGRPPRVKDTDTQALESDLSSVLGLDVSIDHRGSTGTLTITYATLEQLDDLCNRLTRGI

In all, about 81,000 sequences were measured (“one-hybrid fitness for binding parS DNA”: median about -0.17, highest 2% from about 0.51 on). The list shows a part of the results.

The variants in this experiment derive from B1. Briefly: one-hybrid fitness for binding parS DNA (scaled: cognate 1, non-cognate 0); higher = stronger binding. Particulars: with parS DNA site. An outline of the steps:
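Pre- and post-selection plasmids were Illumina-sequenced, three replicate libraries were pooled, and any variant with under 10 reads was removed. The libraries were Caulobacter ParB with four specificity codons randomised, selected in E. coli USO through a HIS3 reporter whose site is 19 bp from the promoter. Cells grew 48 hours at 37°C on M9 without histidine, with 0.1 mM IPTG and 5 mM 3-AT. Fitness is the log change in variant-to-wild-type read ratio, rescaled against cognate and non-cognate.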
Consider PWHR, for which the “one-hybrid fitness for binding parS DNA” value was at most 0.2. The result for QADR reads at most 0.2; that for VSFT, at most 0.2; that for GELC, at most 0.2. The result for QQNY reads at most 0.2; that for SILF, at most 0.2; that for CMQA, at most 0.2.

Regarding PLCG, the “one-hybrid fitness for binding parS DNA” value was at most 0.2. The result for EESF reads at most 0.2; that for RFGC, 0.882. The same measure for KFTN: at most 0.2; for TQRF: at most 0.2.

Consider KTTF, for which the “one-hybrid fitness for binding parS DNA” value was at most 0.2. The same measure for PDPF: at most 0.2; for LIQM: at most 0.2. The same measure for RWAI: at most 0.2; for RLIK: at most 0.2.

With VSIE, the “one-hybrid fitness for binding parS DNA” value was at most 0.2. The result for SISR reads at most 0.2; that for NTNT, at most 0.2; that for DYNA, at most 0.2. For the variant SYRF, the “one-hybrid fitness for binding parS DNA” value is at most 0.2.

Turning to HQTC, the “one-hybrid fitness for binding parS DNA” value was at most 0.2. The result for TRTF reads at most 0.2. The result for RFCY reads 0.404.

As to FRPN, the “one-hybrid fitness for binding parS DNA” value was at most 0.2.

Consider KTAV, for which the “one-hybrid fitness for binding parS DNA” value was at most 0.2. The same measure for LTSR: at most 0.2; for PCKA: at most 0.2.

On to QQDE, for which the “one-hybrid fitness for binding parS DNA” value was at most 0.2. The same measure for IGVG: at most 0.2; for ITMG: at most 0.2; for ASNW: at most 0.2. The result for RQED reads at most 0.2; that for SYRA, at most 0.2; that for ANLE, at most 0.2. The same measure for THPP: at most 0.2; for HRTY: at most 0.2; for PFMC: at most 0.2. In the case of QVGH, the “one-hybrid fitness for binding parS DNA” value was at most 0.2. The same measure for RHNV: at most 0.2; for GTCT: at most 0.2; for CRAI: at most 0.2. In the case of DLYG, the “one-hybrid fitness for binding parS DNA” value was at most 0.2.

On to GVMS, for which the “one-hybrid fitness for binding parS DNA” value was at most 0.2.

Turning to TLCY, the “one-hybrid fitness for binding parS DNA” value was at most 0.2.

Take NSCT: the “one-hybrid fitness for binding parS DNA” value was at most 0.2. The result for LGLP reads at most 0.2. The result for GAAE reads at most 0.2; that for GKGN, at most 0.2. The same measure for GRGS: at most 0.2. Consider KCPC, for which the “one-hybrid fitness for binding parS DNA” value was at most 0.2.

As for QCMF, the “one-hybrid fitness for binding parS DNA” value is at most 0.2. In the case of CEHG, the “one-hybrid fitness for binding parS DNA” value is at most 0.2.

In the case of FKLF, the “one-hybrid fitness for binding parS DNA” value was at most 0.2. The same measure for HPVN: at most 0.2; for QITH: at most 0.2; for TWRT: at most 0.2. The same measure for CFAL: at most 0.2. For the variant MNPV, the “one-hybrid fitness for binding parS DNA” value was at most 0.2. The result for RKQC reads 0.825; that for QRIW, at most 0.2; that for TWPM, at most 0.2. The same measure for YDSP: at most 0.2; for YLCG: at most 0.2; for QFNR: at most 0.2. The same measure for GIDC: at most 0.2; for PRYP: at most 0.2.

For the variant RYGF, the “one-hybrid fitness for binding parS DNA” value was found to be 0.205. The result for QSCQ reads at most 0.2. The same measure for PINI: at most 0.2; for SEYR: at most 0.2; for EKAT: at most 0.2. The same measure for VNSL: at most 0.2; for QAMI: at most 0.2. On to SASC, for which the “one-hybrid fitness for binding parS DNA” value is at most 0.2. For the variant PVWG, the “one-hybrid fitness for binding parS DNA” value is at most 0.2. Regarding QSIY, the “one-hybrid fitness for binding parS DNA” value is at most 0.2. WPCT: the “one-hybrid fitness for binding parS DNA” value was at most 0.2. For the variant HQDG, the “one-hybrid fitness for binding parS DNA” value is at most 0.2. The result for HHVL reads at most 0.2; that for PPIK, at most 0.2; that for DRMT, at most 0.2. The same measure for PDFD: at most 0.2; for DTLE: at most 0.2; for RSEW: at most 0.2. The result for IYLG reads at most 0.2; that for RPKG, at most 0.2. On to HFID, for which the “one-hybrid fitness for binding parS DNA” value was at most 0.2. The result for RGRT reads 0.676; that for SSQF, at most 0.2; that for NGTS, at most 0.2. For the variant RFVT, the “one-hybrid fitness for binding parS DNA” value came out at 0.614. The result for SEIS reads at most 0.2; that for HLAG, at most 0.2; that for LSMF, at most 0.2. The result for NKVD reads at most 0.2.

Take LAMG: the “one-hybrid fitness for binding parS DNA” value is at most 0.2. The result for DLVC reads at most 0.2; that for NRAT, at most 0.2; that for SVDL, at most 0.2. The same measure for VVPK: at most 0.2; for KMVN: at most 0.2; for NHVG: at most 0.2. For ESFC, the “one-hybrid fitness for binding parS DNA” value is at most 0.2.

Turning to CWRY, the “one-hybrid fitness for binding parS DNA” value is at most 0.2.

Consider AKRG, for which the “one-hybrid fitness for binding parS DNA” value was at most 0.2. The result for PNYY reads at most 0.2; that for KIQS, at most 0.2; that for RGNF, at most 0.2. The same measure for VYKY: at most 0.2; for AHLG: at most 0.2.

On to LRFW, for which the “one-hybrid fitness for binding parS DNA” value is at most 0.2. The same measure for IRFT: at most 0.2; for HVMG: at most 0.2. As to HVVL, the “one-hybrid fitness for binding parS DNA” value was at most 0.2. In the case of MTLG, the “one-hybrid fitness for binding parS DNA” value is at most 0.2. The result for QTMC reads at most 0.2. The same measure for NATI: at most 0.2; for RKQV: at most 0.2. As for LRRY, the “one-hybrid fitness for binding parS DNA” value is at most 0.2. The result for PFHR reads at most 0.2; that for FLST, at most 0.2; that for RRCK, at most 0.2.

On to FGVS, for which the “one-hybrid fitness for binding parS DNA” value is at most 0.2.

As for KYEG, the “one-hybrid fitness for binding parS DNA” value was at most 0.2. In the case of SQAG, the “one-hybrid fitness for binding parS DNA” value was at most 0.2. The same measure for HDTE: at most 0.2.

In the case of TTRN, the “one-hybrid fitness for binding parS DNA” value was at most 0.2. The result for HNQW reads at most 0.2; that for TPFA, at most 0.2; that for NPPW, at most 0.2. The same measure for RYHC: 0.949; for FLWA: at most 0.2. The same measure for CSTR: at most 0.2; for AKET: at most 0.2. For EPGH, the “one-hybrid fitness for binding parS DNA” value is at most 0.2. Turning to QMLN, the “one-hybrid fitness for binding parS DNA” value is at most 0.2.

For KPPQ, the “one-hybrid fitness for binding parS DNA” value is at most 0.2. The result for RIWW reads 0.219. For the variant QEIS, the “one-hybrid fitness for binding parS DNA” value is at most 0.2. The result for EPQS reads at most 0.2; that for PEAT, at most 0.2. The same measure for WSMI: at most 0.2. The result for QITY reads at most 0.2; that for EVRC, at most 0.2; that for RMKL, at most 0.2. For AKKF, the “one-hybrid fitness for binding parS DNA” value is at most 0.2. The result for TNAL reads at most 0.2; that for RREC, 0.731. For the variant NMRC, the “one-hybrid fitness for binding parS DNA” value is at most 0.2. The result for TTAF reads at most 0.2; that for EVKY, at most 0.2.

The values are drawn from a collection of fitness landscapes (doi:10.1016/j.celrep.2020.107928).
